Experimental data published in paper PMC4336329 (PLoS ONE, 2015).
Among all 310,000 compounds or so, about 14,000 (4.5%) showed an effect of 50% or more. The effect is printed as a negative number. The list shows a part of the results.

Target: human ether-à-go-go-related gene (hERG) potassium channel (human, UniProt Q12809)
Experiment: primary screen, population patch clamp on CHO cells stably expressing hERG
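Note: peak tail current of the secondary pulse compared with the same well before compound.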

human ether-à-go-go-related gene (hERG) potassium channel, sequence (Q12809 whole entry, looked up): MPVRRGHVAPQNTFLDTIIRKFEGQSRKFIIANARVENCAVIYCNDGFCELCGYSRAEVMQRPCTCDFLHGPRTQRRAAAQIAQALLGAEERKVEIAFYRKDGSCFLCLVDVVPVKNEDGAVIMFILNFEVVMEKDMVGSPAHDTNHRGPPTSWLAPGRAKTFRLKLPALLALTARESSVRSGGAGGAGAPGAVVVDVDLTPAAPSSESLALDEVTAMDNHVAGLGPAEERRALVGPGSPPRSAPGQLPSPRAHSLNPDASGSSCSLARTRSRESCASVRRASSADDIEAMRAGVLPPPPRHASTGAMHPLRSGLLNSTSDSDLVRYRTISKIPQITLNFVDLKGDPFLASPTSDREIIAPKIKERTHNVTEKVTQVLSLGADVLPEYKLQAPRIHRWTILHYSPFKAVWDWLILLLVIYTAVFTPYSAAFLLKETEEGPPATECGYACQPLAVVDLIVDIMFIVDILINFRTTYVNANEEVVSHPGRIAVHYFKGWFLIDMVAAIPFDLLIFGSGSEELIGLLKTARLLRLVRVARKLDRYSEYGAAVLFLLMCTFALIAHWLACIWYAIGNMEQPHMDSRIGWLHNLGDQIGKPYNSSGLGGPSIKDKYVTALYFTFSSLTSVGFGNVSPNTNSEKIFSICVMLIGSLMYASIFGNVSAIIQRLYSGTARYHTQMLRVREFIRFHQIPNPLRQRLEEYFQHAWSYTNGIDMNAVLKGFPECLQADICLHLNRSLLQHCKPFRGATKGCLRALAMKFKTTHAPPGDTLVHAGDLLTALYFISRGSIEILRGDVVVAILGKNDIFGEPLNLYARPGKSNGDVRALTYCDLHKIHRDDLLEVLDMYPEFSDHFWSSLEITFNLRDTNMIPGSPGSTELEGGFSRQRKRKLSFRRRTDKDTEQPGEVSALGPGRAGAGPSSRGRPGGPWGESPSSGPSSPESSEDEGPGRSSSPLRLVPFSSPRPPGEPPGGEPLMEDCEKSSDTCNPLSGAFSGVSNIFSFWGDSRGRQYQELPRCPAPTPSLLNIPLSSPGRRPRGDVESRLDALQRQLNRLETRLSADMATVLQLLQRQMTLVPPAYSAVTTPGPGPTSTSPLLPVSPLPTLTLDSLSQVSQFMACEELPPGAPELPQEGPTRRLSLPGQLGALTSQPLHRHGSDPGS

Structure (SMILES)	hERG current change (%, negative = inhibition) at 10uM
O=S(=O)(c1cnc[nH]1)N1CCN(c2ccc(F)cc2)CC1	-3%
CCC1CCCCN1Cc1nc2ccccc2c(=O)n1CC(C)=O (centres unmarked)	-9.47%
Cc1ccc(CN2CCN(Cc3ccccc3C(F)(F)F)CC2)cc1.O=C(O)C(=O)O	2.42%
Cc1ccccc1-n1cc(-c2ccc(Br)cc2)nc1SCC(N)=O	-11.2%
Cc1cccc(OCCC(=O)Nc2c(C)n(C)n(-c3ccccc3)c2=O)c1	3.41%
C(=N\NCc1ccccc1)/c1ccc2ncccc2c1	4.57%
CCN=C1SC(CC(=O)NCCc2ccc(OC)c(OC)c2)C(=O)N1CC (centres unmarked)	7.59%
O=C(NCc1ccco1)c1ccc2c(c1)CCO2	10.4%
COc1ccc(N(CC(=O)N/N=C/c2cccc(OC)c2OC)S(=O)(=O)c2ccccc2)cc1	-6.77%
CC(C)CC(NS(=O)(=O)c1ccccc1S(=O)(=O)NC(CC(C)C)C(=O)O)C(=O)O (centres unmarked)	11.3%
Cn1cnc(S(=O)(=O)N2CCN(C(c3ccccc3)c3ccccc3)CC2)c1	-2.54%
O=C(c1cnn2c(C(F)(F)F)cc(-c3ccccc3)nc12)N1CCC2(CC1)OCCO2	-6.39%
O=C1NC(=O)C(c2ccccc2)(c2ccccc2)N1	1.76%
O=C(CC1(O)C(=O)N(Cc2ccccc2)c2ccccc21)c1ccc2c(c1)OCO2 (centres unmarked)	1.08%
Cc1ccc(C)c(NC(=O)Cc2nc(CNCC(C)C)cs2)c1	-1.78%
Cc1cc2nc(C(F)(F)F)[nH]c(=O)n2n1	16.2%
COc1ccc(NC(=O)c2ccccc2SC)cc1	14.4%
CCOc1ccc(OCCCCn2ccnc2)cc1	-24.9%
C=CCOc1cccc(CNc2cccc(C(=O)O)c2)c1	20.7%

Structure (SMILES)	hERG current change (%, negative = inhibition) at 10uM
Cc1onc(-c2ccccc2)c1C(=O)Nc1ccc(Cl)c(S(=O)(=O)N2CCOCC2)c1	-9.95%
CSCCC(NS(=O)(=O)c1ccc2c(c1)oc(=O)n2C)C(=O)NC1CCCCC1 (centres unmarked)	16.1%
CC(=O)Nc1ccc(N2CCOCC2)c([N+](=O)[O-])c1	-3.99%
CCCNC(=O)N1[C@H]2CC[C@@H]1C(C(=O)OC)=C(c1cc3ccccc3o1)C2	-7.09%
CCOc1ccc(CNc2ncc(-c3ccccc3)n2C)cc1	-38.9%
COc1ccccc1CNC(=O)c1cccc(-c2ccc(C)c3ccccc23)n1	18.9%
Cc1cc2c(C)nc3ccccc3c2o1	-2.63%
Cc1cc(C)c(NC(=O)CN2C(=O)NC3(CCCCC3)C2=O)c(Cl)c1	-4.29%
CCOc1ccccc1C1CC(c2ccccc2)Nc2nc(N)nn21.Cl (centres unmarked)	-11.9%
CC(C)(C)c1csc(NC(=O)c2ccc(Br)o2)n1	-20.1%
Cc1cc(OCC(=O)NCCCN2CCCC2=O)c2c(C)c(C)c(=O)oc2c1	-13.6%
COc1ccc(-c2nnn(CC(=O)N(CCCN3CCOCC3)C(C(=O)NC3CCCC3)c3ccc(C)o3)n2)cc1 (centres unmarked)	-34.3%
O=C(CCl)Nc1cn(-c2ccccc2)nc1-c1ccccc1	-48.9%
N=C1c2ccccc2CN1NC(=O)c1ccc(Br)o1	13.8%
CCCC1C(C#N)=C(N)Oc2c1c(=O)oc1ccccc21 (centres unmarked)	-6.06%
CS(=O)(=O)Nc1cccc(C(=O)OCCCOc2ccc(F)cc2)c1	-54.5%
CCOCC(=O)Nc1nnc(COCC)s1	5.56%
Cc1ccccc1NC(=O)C1CCCN(S(=O)(=O)c2cccc3cccnc23)C1 (centres unmarked)	-0.726%
Brc1ccc(Oc2ncc(CN3CCN(c4ccccc4)CC3)s2)cc1	6.41%

Structure (SMILES)	hERG current change (%, negative = inhibition) at 10uM
CCc1cc2c(=O)c(-c3nc4ccccc4n3C)coc2c(CN2CCCC(C)C2)c1O (centres unmarked)	12.4%
CCCN1C/C(=C/c2ccc3c(c2)OCO3)C(=O)/C(=C/c2ccc3c(c2)OCO3)C1	-17.7%
CCCn1c(SCc2ccccc2)nc2c1c(=O)[nH]c(=O)n2C	-12%
CCC(=O)N1CCN(c2ccc(NC(=O)c3ccc(C#N)cc3F)cc2Cl)CC1	-7.73%
COc1ccc(-c2nnc(-c3ccc(C)cc3)o2)cc1	8.56%
O=C(O)CCC(=O)Nc1ccc(S(=O)(=O)c2ccc(NC(=O)CCC(=O)O)cc2)cc1	13.2%
COc1ccc(C(=O)NCc2ccco2)cc1S(=O)(=O)NC1CC1	-13.8%
O=C(c1cc(S(=O)(=O)N2CCOCC2)ccc1Cl)N1CCC(Cc2ccccc2)CC1	-15.9%
O=C(CN1CCN(c2ncc(C(F)(F)F)cc2Cl)CC1)NC(=O)NCc1ccccc1	4.2%
CCOc1ccc(CNC(=O)Cn2nc(C)n3nc(-c4ccccc4)cc3c2=O)cc1	-9.48%
COc1ccc(C(=O)N=c2sc3c(C)ccc(OC)c3n2C)cc1OC	7.38%
COc1ccc(-c2oc(/N=C/N3CCOCC3)c(C#N)c2-c2ccc(OC)cc2)cc1	13.9%
CCOC(=O)c1c[nH]n2c(=O)cc(C)nc12	11.2%
C[C@H](NC(=O)c1nc[nH]c1C(=O)N[C@@H](CCCCNC(=O)OC(C)(C)C)C(=O)OC(C)(C)C)C(=O)OC(C)(C)C	-4.85%
Cc1ccc(-c2nnc3c(C(F)(F)F)nc4ccccc4n23)cc1	-2.14%
CCN(CC(=O)NC(C)(C)C)Cc1nc2c(Br)cc(Br)cc2c(=O)[nH]1	-5.72%
O=C(c1ccccc1NS(=O)(=O)c1ccc(F)cc1)N1CCc2ccccc21	3.06%
N#Cc1ccccc1COC(=O)CCC(=O)c1cccs1	-4.58%
